Key:
[1] = target: T1, dog albumin (Canis lupus familiaris, UniProt P49822, biotin in the BLI with FcRn, else none); conditions: both partners purified
[2] = target: T1, dog albumin; assay: ELISA; […], pH 7.4); room temperature; […]; conditions: both partners purified

Row | Binder | Kd [1] [nM] | koff [1] [s⁻¹] | binding result [2]
1 | A12L (VHH, also called sdAb A12) VHH: QVQLQESGGGLVQAGGSLRLSCAASGRTFSYYPMAWFRQAPGQEREFVAAIIGADTTYYADSLKGRFTISRDNAKNMVYLQMNSLKPEDTAVYYCAARNTYWSDVYYREGQYTNWGQGTQVTVSS | 271 | 0.0125 | –
2 | A2L (VHH, also called sdAb A2) VHH: QVQLQQSGGGLVQAGGSLRLSCAASGRFFSRQVMGWFRQAPGKDREFVGVISWDNGVTFYSDSVKGRFTMSREIAKKTVHLQMNSLKPEDTAVYYCAAGNALHSRYYSPSKYDYWGPGTQVTVSS | – | – | binds
3 | A6L (VHH, also called sdAb A6) VHH: QVQLQESGGRLVQAEDSLRLSCAASGRTFVSYDMGWFRQAPGKEREFVAAINWRGYTTDYVDSVKGRFFISRDIAKSTVYLQMNNLKPEDTAVYYCAARQMSGSSRYSPPGRVGYDFWGQGTQVTVSS | 3.2 | 0.00226 | –
4 | A16L (VHH, also called sdAb A16) VHH: QVQLQESGGGVVQAGGSLRLSCAASGRTVSSSAMGWFRLAPGKEREFVVGISRSGGSIFYADSVKGRFTISRKNAKNTVDLQMNSLKPEDTAVYYCAAGYRPGYGDYGRVFYREDEYDDWGQGTQVTVSS | 13 | 0.0051 | –
5 | A7L (VHH, also called sdAb A7) VHH: QVQLQQSGGGLVQAGDSLRLSCAASGRAFNYYTMGWFRQAPGKEREFVAKIYWDGGSTIYADSVKGRFTISIDNAKNTVYLQMNSLKPEDTAVYYCAADPSFYPFRPKYWGQGTQVTVSS | – | – | no binding (tested: 1 µg/ml sdAb)

Source: publication PMC10862077 (Frontiers in Immunology, 2024)
